# Source: the supplement of paper PMC11417369
# The list shows a part of the results.
# System: PF3D7_0420300 AP2 domain 1 (GST-tagged)
# Test: gcPBM binding intensity (ln(normalized median fluorescence intensity)); higher = stronger DNA binding
# Summary of the method: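 After 1 h on an Agilent 4 × 180k array of primer-extended double-stranded 36-bp intergenic genomic probes and negative controls, bound GST-tagged P. falciparum DNA-binding domains were detected with Alexa488 anti-GST antibody and scanned at 488 nm. The domains had been expressed in E. coli, and binding took place in 1× PBS with 1% milk, 0.2 mg/ml BSA, 0.5% salmon testes DNA and 0.03% Triton X-100. Binding intensity is the highest Masliner-normalised natural-log median intensity across replicate spots of either probe orientation.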
row,Sequence,gcPBM binding intensity (ln)
1,CTATTTTTTGTATAAACATGCATATAGTAGATATGG [TGCATGCA_site670],9.01
2,TTTAATATTTTTTTTTGTACTTATTTGTAGAAATAT [XGTACX_site3046],9.11
3,AGGCTCATTTTTTTTAGTACATCAAAAAAAAAAAAA [TGCATGCA_negctrl_site591],8.7
4,AAATTCATATGAATTTGTACGGACATAAATATCTTC [XGTACX_site1838],9.19
5,TGTATGTTTATTTGATGTACGGTCATACATATAAAT [XGTACX_site5176],9.15
6,ATATATATATAGTGCACACATATAAAATATATATAA [CACACA_site2745],9.36
7,TTTACAGATACTTGCTCACACATATGTATAAAAATA [CACACA_site4928],9.12
8,TATAATATATATAGGAGTACGTATGTATATTTATAA [XGTACX_site3521],9.37
9,TATATATAAAACATATGTACATATATATATATATAT [XGTACX_site419],9.22
10,AATAGTTAAATGTACACACTAACTACATGGAATATA [CACACA_site3262],9.48
11,ACATGAAACTATAAACGTACATACATACATATATAT [XGTACX_site5011],9.45
12,ATATTTTATAATTTTACACACCATATAAAATAATTC [CACACA_site2797],9.25
13,AAGTAAAAAAATAGCACACACACAAAAACACCCACA [CACACA_site1291],10
14,TGAGCACAAATACAGGTGCATATAAAATATATGACG,9.18
15,AGAGGCCAGCTTTCTCTTCTAAACATGTACAAAAAT [GTGCAC_negctrl_site98],8.93
16,AAAAAAATAAAATGTTCACACATTTCACAATTACTT [CACACA_site4859],9.2
17,ATTTAATTTATTATGTGTACTTATTTAATTAAATTA [XGTACX_site3171],9.22
18,CTGATATATAGATGTAGTACATAAAAATGACGAATT [XGTACX_site5612],9.44
19,TTATATATTTATAAATGTACATATAATTTTTTTATA [XGTACX_site4696],9.01
20,CATATAATTATTGAAAGTACATACAAATAAAAAGAT [XGTACX_site6535],9.67
21,ATATTTTTATTTAAATCACATCATTTTGTTTATTTG [CACACA_negctrl_site1056],9.38
22,ATATATATATGTATATGTACATATATATACACATAT [XGTACX_site140],9.23
23,TAAATATATTTATATTGTACATTTATGTTGATACCA [XGTACX_site228],9.15
24,TATATATATAATATATGTACTGATATGCTATTTACT [XGTACX_site841],9.32
25,ATATTTACCACTGTATGTACATATATAAAATATATC [XGTACX_site6373],9.36
